Consider 172 sequences from paper PMC6212790.

This is one part of the list. At the low end of the ranking the order means little.

The target of the assay is T1, GST-Rok (full length) (UniProt O34857).
T1 sequence: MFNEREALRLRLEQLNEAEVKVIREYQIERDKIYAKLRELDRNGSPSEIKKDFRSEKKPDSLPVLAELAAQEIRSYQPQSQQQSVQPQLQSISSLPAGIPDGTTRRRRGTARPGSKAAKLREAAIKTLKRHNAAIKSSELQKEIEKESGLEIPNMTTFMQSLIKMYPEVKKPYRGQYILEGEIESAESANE
The experiment in a line: protein binding microarray.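 Further: rank score from −0.5 (least bound) to 0.5 (best bound).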 The conditions noted are these: Rok is a gene silencer of Bacillus subtilis; high values mean tight binding; most listed sequences are background and not binding sites; double strand, one strand shown.
Sequence GCCAGGAC displayed a binding signal of -0.283 E-score.

As for CCAGTGAG, the binding signal was -0.239 E-score.

Consider TCAGGCCA, for which the binding signal was -0.178 E-score.

In the case of AATCGCGA, the binding signal was found to be 0.193 E-score.

For the sequence ATCCAGAT, the binding signal worked out at 0.0992 E-score.

As for ACGCCACC, the binding signal was -0.149 E-score.

With GCCACGGC, the binding signal is -0.323 E-score.

Consider GATAGGCA, for which the binding signal stood at 0.0553 E-score.

Sequence GAGGTTCC returned a binding signal of -0.231 E-score.

Take GACACAGC: the binding signal is -0.196 E-score.

For TTAACCAA, the binding signal stood at 0.11 E-score.

Sequence CCGAAAAC returned a binding signal of 0.0988 E-score.

In the case of GCTCCAGC, the binding signal is -0.123 E-score.

CTAAGGAC: the binding signal was -0.0964 E-score.

In turn, GAATGTGC had a binding signal of 0.0407 E-score.

Sequence ACAAGCTC yielded a binding signal of -0.0235 E-score.

CAAGTAGA yielded a binding signal of 0.286 E-score.

Regarding AGTAACTC, the binding signal worked out at 0.0592 E-score.

CGTAGTAC gave a binding signal of 0.202 E-score.

AGATAATA displayed a binding signal of 0.31 E-score.

Consider ACCGGTAT, for which the binding signal was determined as 0.198 E-score.

With ATTCAACC, the binding signal was -0.142 E-score.

GCCTTTCA returned a binding signal of -0.234 E-score.

The sequence CTTGGACC displayed a binding signal of -0.247 E-score.

On to ACCCGCTA, for which the binding signal was -0.0838 E-score.

Sequence GAATATAA returned a binding signal of 0.266 E-score.

In turn, CAAAGATG displayed a binding signal of 0.046 E-score.

Take AACAAGCA: the binding signal was determined as 0.0484 E-score.

In turn, GGCCAGGA displayed a binding signal of -0.233 E-score.

Turning to GATGCATC, the binding signal is -0.00841 E-score.

Take ACTTCCGG: the binding signal is -0.105 E-score.

Regarding CAGGATCC, the binding signal was -0.0767 E-score.

The sequence ACCGCACT came in with a binding signal of 0.0535 E-score.

ATATGGAC returned a binding signal of 0.025 E-score.

AGTTGGAT displayed a binding signal of 0.082 E-score.

As for ACAATGCG, the binding signal was found to be 0.1 E-score.

AGATGTGG showed a binding signal of -0.117 E-score.

In turn, TCCTTGAA registered a binding signal of -0.144 E-score.

Take GGTGGGAC: the binding signal was -0.282 E-score.

The sequence CACAACAC came in with a binding signal of 0.138 E-score.

Turning to ATTCCAGA, the binding signal turned out to be 0.0743 E-score.

With GAAAATGC, the binding signal was -0.0512 E-score.

Take GACGGATC: the binding signal was -0.0729 E-score.

Consider AGGAGTGC, for which the binding signal is -0.293 E-score.

For AAGGAGGG, the binding signal is -0.308 E-score.

In the case of CCAGAATA, the binding signal is 0.0214 E-score.

As to GCTGCGAA, the binding signal is -0.0711 E-score.

For the sequence AACCCTTC, the binding signal is -0.295 E-score.

In turn, ACCCCAAC returned a binding signal of -0.253 E-score.

Turning to GCTATCGA, the binding signal turned out to be 0.0757 E-score.

TCGTACAA came in with a binding signal of 0.149 E-score.

Take TCTAACCA: the binding signal was 0.162 E-score.

GCACGGAA returned a binding signal of 0.0213 E-score.

As for CCGGTTGC, the binding signal was -0.313 E-score.

Consider CAGAAATC, for which the binding signal is -0.0506 E-score.

In turn, CTCGAGCA had a binding signal of -0.112 E-score.

Turning to CCGTTTTC, the binding signal is -0.159 E-score.

With CTAGCCCA, the binding signal is -0.113 E-score.

The sequence ACTGTGCA yielded a binding signal of 0.0717 E-score.

Turning to GCATGACC, the binding signal was -0.225 E-score.

In turn, GGATGAGA gave a binding signal of -0.102 E-score.

Sequence AAGCATCA displayed a binding signal of 0.0275 E-score.

Turning to ACCCCGGT, the binding signal is -0.205 E-score.

In the case of ACTGCCGG, the binding signal was -0.104 E-score.

With GGGTAGGA, the binding signal was -0.09 E-score.

For the sequence ACTACTGA, the binding signal was 0.323 E-score.

GTAATAAC came in with a binding signal of 0.0644 E-score.

In the case of GAAGGGAC, the binding signal was -0.372 E-score.

GTCTGGAA displayed a binding signal of -0.0952 E-score.

In turn, CGGCTGAG gave a binding signal of -0.0154 E-score.

On to ACAATGGC, for which the binding signal is 0.0616 E-score.

On to TAACCCGA, for which the binding signal is -0.0517 E-score.

GATGTATA returned a binding signal of 0.33 E-score.

CGGAATTA showed a binding signal of 0.239 E-score.

The sequence CAGTTTGG had a binding signal of 0.0137 E-score.

As to GGTTCGAC, the binding signal was -0.107 E-score.

As to AATAGAGG, the binding signal was -0.128 E-score.

AGCCTCGC: the binding signal is -0.233 E-score.

ATCAACTG: the binding signal was -0.0213 E-score.

For the sequence CTTGACAC, the binding signal is -0.068 E-score.

Sequence CCTCTCCC displayed a binding signal of -0.444 E-score.

Consider AAAGCGTT, for which the binding signal is -0.197 E-score.

For ACGGAAGC, the binding signal is -0.348 E-score.

In the case of TCGGCACA, the binding signal was -0.128 E-score.

AACAAGGC came in with a binding signal of -0.192 E-score.

The sequence AAATTATG gave a binding signal of 0.215 E-score.

The sequence GATGAGAC had a binding signal of -0.273 E-score.

Take AAATAAGC: the binding signal was -0.0238 E-score.

In turn, CCCCTCTA showed a binding signal of -0.271 E-score.

Regarding ACTAAGAC, the binding signal is -0.0146 E-score.

GCTAATGA had a binding signal of -0.0686 E-score.

In turn, CTCTTTTC yielded a binding signal of -0.0791 E-score.

Regarding AACTCTTG, the binding signal is -0.0712 E-score.

Sequence ACGATCCT returned a binding signal of 0.00571 E-score.

ATCCGGCG gave a binding signal of -0.0839 E-score.

CCCTAGCG gave a binding signal of -0.256 E-score.

Take GCCTAGAC: the binding signal was -0.293 E-score.

With ATGCGTTC, the binding signal worked out at 0.0859 E-score.

Take CAAAATTA: the binding signal is 0.204 E-score.

For the sequence GCATAAAA, the binding signal came to 0.251 E-score.

Consider ATCCTTTG, for which the binding signal was determined as 0.00052 E-score.

Consider TGACAGAA, for which the binding signal was -0.111 E-score.

Turning to CCGTGGAC, the binding signal was -0.293 E-score.

ACAGATAT: the binding signal turned out to be 0.153 E-score.

CAACCAGA yielded a binding signal of -0.199 E-score.

As to ATCACGAC, the binding signal is -0.0777 E-score.

GAGCCACA: the binding signal is -0.148 E-score.

For the sequence AACGCTGC, the binding signal was -0.118 E-score.

Take GACGCCCC: the binding signal was -0.368 E-score.

TCAGTGCA registered a binding signal of -0.111 E-score.

In turn, ATGCAGAC returned a binding signal of -0.141 E-score.

With AAACCGTT, the binding signal came out at 0.0137 E-score.

As to ATCGTAAC, the binding signal was determined as 0.238 E-score.

AAGCTTAG gave a binding signal of 0.00608 E-score.

With AGCAACAA, the binding signal came to 0.0506 E-score.

The sequence CCAGCAAC yielded a binding signal of 0.0306 E-score.

For the sequence CAATGCCC, the binding signal is -0.155 E-score.

The sequence GTGGAATA gave a binding signal of 0.0844 E-score.

The sequence AAAGGACA had a binding signal of -0.0521 E-score.

As for ATTAAAAC, the binding signal was found to be 0.167 E-score.

For the sequence AATTCGGA, the binding signal came to 0.166 E-score.

Regarding AAGCGCCT, the binding signal is -0.0876 E-score.

Consider CGGAGCGA, for which the binding signal is -0.225 E-score.

For the sequence CCTCGGAC, the binding signal is -0.104 E-score.

ATGTACAT: the binding signal is 0.409 E-score.

Sequence CGGAGGTC came in with a binding signal of -0.295 E-score.

GGCGAGGA came in with a binding signal of -0.31 E-score.

As for GAACGGGA, the binding signal was -0.0892 E-score.

As for CTCTCGAC, the binding signal was -0.113 E-score.

Consider CAGTGCAC, for which the binding signal is -0.0944 E-score.

ATGAGACA registered a binding signal of 0.00283 E-score.

Regarding CACATCTC, the binding signal was determined as 0.0106 E-score.

The sequence AACCCGAG displayed a binding signal of -0.141 E-score.

Sequence CCCTGGCG displayed a binding signal of -0.337 E-score.

ATAGTTCG came in with a binding signal of 0.299 E-score.

Consider CCGCAGAC, for which the binding signal was -0.181 E-score.

AAATGCAC displayed a binding signal of -0.0384 E-score.

In turn, CCAAAGAA came in with a binding signal of -0.0233 E-score.

The sequence CTATCGAC returned a binding signal of 0.0997 E-score.

Regarding AGCCTGCA, the binding signal is -0.136 E-score.

In turn, CATACTAC had a binding signal of 0.376 E-score.

With ACATTACT, the binding signal came to 0.305 E-score.

Consider CTGATGCC, for which the binding signal was -0.239 E-score.

As for AAGAATGA, the binding signal is 0.18 E-score.

The sequence ACGGTCAT displayed a binding signal of 0.0717 E-score.

The sequence AGCTCATG gave a binding signal of -0.0852 E-score.

Take CATGCCAA: the binding signal is -0.0955 E-score.

In the case of GGTACACA, the binding signal was found to be 0.0609 E-score.

ACGGCCGT had a binding signal of -0.181 E-score.

For GTTATATA, the binding signal was determined as 0.296 E-score.

GAAATGGA returned a binding signal of -0.0107 E-score.

The sequence GCACGTCC returned a binding signal of -0.0724 E-score.

In the case of GCATTCAA, the binding signal was -0.000228 E-score.

On to AAGTAATA, for which the binding signal is 0.275 E-score.

As for ATGTCCCC, the binding signal is -0.322 E-score.

For the sequence AAAAGGAA, the binding signal is -0.0367 E-score.

AATTAGCC registered a binding signal of 0.0506 E-score.

As for ACAAGACC, the binding signal was -0.199 E-score.

Sequence CCAACTGG showed a binding signal of -0.154 E-score.

Sequence GACGTAGA showed a binding signal of 0.0633 E-score.

ATAGGCGC gave a binding signal of -0.036 E-score.

GACCCTTA showed a binding signal of -0.105 E-score.

Consider AAAGCCTC, for which the binding signal is -0.244 E-score.

On to GAGATACC, for which the binding signal is -0.0348 E-score.

AGGAAACC registered a binding signal of -0.254 E-score.

AGTAGGAT yielded a binding signal of 0.334 E-score.

With AAAGGCAG, the binding signal is -0.214 E-score.

In turn, AGTCTGAA registered a binding signal of -0.126 E-score.

For the sequence CCTATCTC, the binding signal was found to be 0.168 E-score.

Regarding AGTGCGAG, the binding signal was -0.162 E-score.

CACCCTCC returned a binding signal of -0.16 E-score.

For the sequence CGCAACCA, the binding signal was -0.0956 E-score.
